The text below walks through data of US20070031912A1 (RIKEN, published 2007).

The target in experiment [1] is T1, mKO-FM14-C-PCNA.
T1 construct: Fusion expressed inside HeLa cells from mKO-FM14-C-PCNA-pCDNA3; PCNA was amplified from a HeLa cDNA library; PCNA is said, as background, to form a homo-trimer; also called PCNA (proliferating cell nuclear antigen) fused to the C-terminal of mKO-FM14-C
The experiment is described as follows: split fluorescent protein complementation in co-transfected HeLa cells, orange and green fluorescence images 8 hours after transfection. The procedure:
The amplification product was separated by agarose gel electrophoresis, excised out and purified and then cleaved with restriction enzymes NotI and XhoI, purified and used for the construction. mKO-FM14-N-p21-pCDNA3 and mKO-FM14-C-PCNA-pCDNA3 thus prepared were transfected to HeLa cells to obtain the history data of binding of p21 and PCNA. HeLa cells were grown in 3.5 cm dishes to 30% confluence, and after 16 hours, 500 ng each of the plasmid, mKO-FM14-N-p21-pCDNA3 and mKO-FM14-C-PCNA-pCDNA3, was transfected using the gene transfection reagent polyfect (QIAGEN) to co-express mKO-FM14-N-p21 and mKO-FM14-C-PCNA. Gene transfection was carried out according to the protocol of polyfect.
After 8 and 22 hours of the gene transfection, orange and green fluorescence images were obtained. […] Orange fluorescence image was obtained using the excitation filter 25BP520-540HQ, the fluorescence filter 25BA555-600HQ, and the dichroic mirror DM545HQ, and green fluorescence image was obtained using the excitation filter BP460-480, the fluorescence filter BA495-540, and the dichroic mirror DM485. […] Fluorescence image was obtained using a cooling CCD camera ORCA-ER (Hamamatsu Photonics Inc.).

For experiment [2], the target named is T1, mKO-FM14-C-PCNA. As to the kind of experiment: split fluorescent protein complementation in co-transfected HeLa cells, green fluorescence images 24 hours after transfection. The method, then:
Since the 65th amino acid was included in mKO-FM14-N fragment, mKG-N-p21-pCDNA3 was produced by substituting the 65th cystein (C) of mKO-FM14-N-p21-pCDNA3 with alanine (A). HeLa cells were transfected with mKG-N-p21-pCDNA3 and mKO-FM14-C-PCNA-pCDNA3 to measure the binding between p21 and PCNA. HeLa cells were passaged in 3.5 cm dishes to 30% confluence, and after 16 hours, 500 ng each of the plasmid, mKG-N-p21-pCDNA3 and mKO-FM14-C-PCNA-pCDNA3, was transfected using the gene transfection reagent polyfect (QIAGEN) to co-express mKG-N-p21 and mKO-FM14-C-PCNA. Gene transfection was carried out according to the protocol of polyfect. After 24 hours of the gene transfection, green fluorescence images were obtained. The fluorescence image was obtained using the excitation filter BP460-480, the fluorescence filter BA495-540, and the dichroic mirror DM485. Excitation light was cut by 90% (10% transmission), and the exposure time was 1 second. An inverted microscope IX-71 (Olympus) with 40×Uapo/340 N.A. 1.35 lens (Olympus) was used. For image retrieval and analysis, MetaMolph (Nippon Roper Inc.) was used by binning 2 to obtain an image. Fluorescence image was obtained using a cooling CCD camera ORCA-ER (Hamamatsu Photonics Inc.). […]

B1: mKO-FM14-N-p21 (other)
chain: MVSVIKPEMKMRYYMDGSVNGHEFTIEGEGTGRPYEGHQEMTLRVTMAEGGPMPFAFDLVSHVFCYGHRVFTKYPEEIPDYFKQAFPEGLSWERSLEFEDGGSASVSAHISLRGNTFYHKSKFTGVNFPADGPIMQNQSVDWEPSTEKITASDGVLKGDVTMYLKLEGGNSADGGGGSGGGGSGGGGSIHHTGGR[sequence of about 150 residues omitted]
notes: Fusion expressed inside HeLa cells from mKO-FM14-N-p21-pCDNA3. p21 was amplified from a HeLa cDNA library; also called p21 (WAF1); Sdi1
With B1, the binding result in the experiment with mKO-FM14-C-PCNA [1] is “binds”.

B2: mKG-N-p21 (other)
chain: MVSVIKPEMKMRYYMDGSVNGHEFTIEGEGTGRPYEGHQEMTLRVTMAEGGPMPFAFDLVSHVFAYGHRVFTKYPEEIPDYFKQAFPEGLSWERSLEFEDGGSASVSAHISLRGNTFYHKSKFTGVNFPADGPIMQNQSVDWEPSTEKITASDGVLKGDVTMYLKLEGGNSADGGGGSGGGGSGGGGSIHHTGGR[sequence of about 150 residues omitted]
notes: Green-only variant (C65A) of the N-terminal fragment fused with p21, expressed inside HeLa cells from mKG-N-p21-pCDNA3; also called mKO-FM14-N-p21 with the 65th cysteine substituted with alanine
For B2, in the experiment with mKO-FM14-C-PCNA [2], the binding result is reported as “binds”.
